In the supplement of paper PMC11417369:
± gives the standard deviation of the averaged measurements. The list shows a part of the results.

system: PfAP2-LT AP2 domain (GST-tagged); assay: gcPBM binding intensity (ln(normalized median fluorescence intensity)); higher = stronger DNA binding
Outline: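 After 1 h on an Agilent 4 × 180k array of primer-extended double-stranded 36-bp intergenic genomic probes and negative controls, bound GST-tagged P. falciparum DNA-binding domains were detected with Alexa488 anti-GST antibody and scanned at 488 nm. The domains had been expressed in E. coli, and binding took place in 1× PBS with 1% milk, 0.2 mg/ml BSA, 0.5% salmon testes DNA and 0.03% Triton X-100. Binding intensity is the highest Masliner-normalised natural-log median intensity across replicate spots of either probe orientation.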

| Sequence | gcPBM binding intensity (ln) |
| --- | --- |
| TACAAAAATAAATGTTGTACTATTATTTATTTCGAT [XGTACX_site1048] | 8.56 ± 0.49 |
| TAATATGTATTTACAAGTACTAACAAAATATTAAAA [XGTACX_site3379] | 8.51 ± 0.49 |
| TTATAAAAAATTTTAGTGCATATATGATTTATATAT [GTGCAC_site9831] | 8.44 ± 0.39 |
| TATATAGCATATTTCACACACACATAATGAATATTA [CACACA_site3546] | 9.41 ± 0.34 |
| ATGATATACGTAAACACACAAATAAAAAAAATTTAT [CACACA_site7544] | 8.96 ± 0.52 |
| TTTTTTAGTTTTTAGTGTACATAAATAAATAAATAA [XGTACX_site2843] | 8.11 ± 0.45 |
| TTAAAAAGAAAGTTCACACACATATAGATGACGGAA [CACACA_site7268] | 9.19 ± 0.44 |
| TGATACTTATGATAAATACACACTTGAAATTAAGGA [CACACA_site1152] | 8.76 ± 0.34 |
| TATATTACAAAAAGTACACACATAAATAAATACATA [CACACA_site975] | 9.19 ± 0.46 |
| ATGCTCAAAAGATATGCATGTACAAATATATGAAAT [TGCATGCA_site592] | 8.99 ± 0.38 |
| TATCAAATGTATATATGTACTTATATTTTTTTTATA [XGTACX_site1501] | 8.56 ± 0.55 |
| AAATTAAAATAATAATTCTACAAATTAATTTATCAT [XGTACX_negctrl_site44] | 8.3 ± 0.51 |
| AATATATTTTCCTGCAAACACACATATAAATGTGTA [CACACA_site532] | 8.84 ± 0.38 |
| TTTCTTTTTTTTTTTGTATATTAAATCTAAAAAGGA [TGCATGCA_negctrl_site431] | 8.02 ± 0.33 |
| ACTTCAAAAATAAACTGTACGTAAAAAAAAAAAAAA [XGTACX_site795] | 8.66 ± 0.39 |
| TTTAAATAAAATATTACACACTTAGAAAAATATATA [CACACA_site3663] | 8.47 ± 0.44 |
| TTTCGTAAAATGAAATGTACTCAAAAGTAAATATAA [XGTACX_site214] | 8.62 ± 0.47 |
| GATATAATGTGTTTGGTATTCTTGATAGATAGTTTT [CACACA_negctrl_site1711] | 8.83 ± 0.44 |
| ACATACATACACCCACGTACGTACCGAAACACCACC [XGTACX_site1212] | 9.41 ± 0.49 |
| ATGATGTCTTTATATTGTACATATATGAAGACGTTA [XGTACX_site7751] | 8.54 ± 0.3 |
| AGAATAAAAAGGAACACACACACACGCATATAAATA [CACACA_site7659] | 10.1 ± 0.39 |
| TTAAAAAAAAATGGCACACATTTTAATTTTATGTTT [CACACA_site5035] | 8.52 ± 0.45 |
| TTTATTTAATTCATTGCATGTAATTTTTGTGTCCAC [TGCATGCA_site677] | 8.84 ± 0.46 |

| Sequence | gcPBM binding intensity (ln) |
| --- | --- |
| TTTTATGATAATTTTGCACACACTTAGGAAAAATTA [CACACA_site1556] | 8.96 ± 0.34 |
| TTGTGATTATATAATCGTACATAATTTTAATCACAC [XGTACX_site398] | 8.73 ± 0.38 |
| AAAAAAAAAAAAAACACACACATATCTATAATATAT [CACACA_site7481] | 9.35 ± 0.44 |
| GAATATAAACATATTACACACATCTATATGTACTTT [CACACA_site8582] | 9.18 ± 0.38 |
| CAAAACAAAGTTGCCGCACACAGATACGCACCCAAG [CACACA_site3455] | 9.35 ± 0.38 |
| ATTTTTTCTAATGGGTGTACTGAAACGTATTTTATT [XGTACX_site6573] | 8.94 ± 0.42 |
| ATTTATTTATATAATACACACAAATATCTTAATGAA [CACACA_site6064] | 8.62 ± 0.42 |
| ATTTGTAATTATTAAACACACACAAAATATATATAA [CACACA_site8804] | 9.07 ± 0.38 |
| GTAATATTATAATATACACACATAGAATATAAATAT [CACACA_site6333] | 9.12 ± 0.36 |
| AAAATACACCAACACACACACATATATATATATATT [CACACA_site4149] | 9.91 ± 0.38 |
| TTCAAGATTTATTATACACACATATTAATATATATA [CACACA_site573] | 8.71 ± 0.37 |
| ATATAATATTGAGTTTGTACATATATATATGAAGAT [XGTACX_site4444] | 8.79 ± 0.4 |
| TAGCCAAAATATAATTTACACACTTATTAAATAATT [CACACA_site7963] | 8.62 ± 0.46 |
| AAAAAAAAAAAAAAATGTACATTATACACATTATAT [XGTACX_site6824] | 8.81 ± 0.32 |
| AATTATGCATTTGTCACACATATATATTACACTTGC [CACACA_site5324] | 9.19 ± 0.42 |
| ATTTTCCCTTGTTTTACACACGTGCTGATATGAGAT [CACACA_site2164] | 9.48 ± 0.32 |
| AAATAAATATATATATGTACATACAAATACACGGTA [XGTACX_site8510] | 9.09 ± 0.4 |
| AAGAAAAATGTCATATGATATCATATATTTTATAAT [TGCATGCA_negctrl_site296] | 8.61 ± 0.49 |
| TATATAAATAGACACACACACACATATAAATAAATA [CACACA_site7855] | 10 ± 0.34 |
| TTTCAATGCATAAAAGTGCGCAATAATTTAAAGATC | 9.03 ± 0.43 |
| TATTTTATAAATACAAGTAAAATTAAATATATAATA [XGTACX_negctrl_site221] | 8.3 ± 0.47 |
| AGGAGGATATTACACAGTACCCAGGAAATCTACGGA [XGTACX_site4878] | 8.85 ± 0.54 |
| TTGTACTACAATCCTTTATTTATTTAAACCTGTATG [CACACA_negctrl_site428] | 8.64 ± 0.54 |

| Sequence | gcPBM binding intensity (ln) |
| --- | --- |
| ATAATATATATTAATACACACACACCGATATATATA [CACACA_site9261] | 9.78 ± 0.17 |
| GACCAATACTTTAAAAGTACAAACCTTATTTTATTT [XGTACX_site2718] | 8.73 ± 0.63 |
| AAAAAAAAATAAAATAAAATAAAATAAAATAATATA [CACACA_negctrl_site1798] | 8.52 ± 0.64 |
| ACATATGTATAATAATGTACGCATTAAATATAATTA [XGTACX_site7851] | 9.1 ± 0.32 |
| AAACAAATGTACAAAGTGCATATTTTTTTCAAAAGG | 8.74 ± 0.46 |
| TATATGTAATATTATACATGCATACATAATATATAT [TGCATGCA_site558] | 8.75 ± 0.35 |
| TATGTGAATATAATCACACACAATACGGAAAGAGAC [CACACA_site7311] | 9.88 ± 0.46 |
| TTTTTTTTTTATAAGGCACACATGAATATTTATACA [CACACA_site1316] | 8.67 ± 0.47 |
| ACCCACGTAAATTAAGCATGCCTTCCGTTATATTTA [TGCATGCA_site365] | 9.11 ± 0.44 |
| TTTTACTAAATATATACACACATTATGCATATATAT [CACACA_site3287] | 9.04 ± 0.46 |
| TTTTAAAGAAAAAAATGTACAAAATTTTTATTTTAA [XGTACX_site1496] | 8.05 ± 0.64 |
| AATGTGATAATATACACACACGCATATATATATATA [CACACA_site323] | 10 ± 0.085 |
| AAAACACTTATGGATTGTACAATAAAAATTATATTA [XGTACX_site7042] | 8.89 ± 0.49 |
| CTGTGTAATTTAAATTGTACGTTTGAAAAAAATAAA [XGTACX_site5667] | 8.52 ± 0.38 |
| TTCTGTGTGTATTGGCGTACAATTATTTTGCCTACA [XGTACX_site205] | 9.17 ± 0.34 |
| ACATTCACAAAATTTTGTACACATATATATATATAT [XGTACX_site3518] | 9.585 ± 0.035 |
| GTATTATCTGCTTTTTGTACACATATATTTAAAAAA [XGTACX_site7603] | 8.72 ± 0.4 |
| TAAATCATGGGATAAGCATGCGCGCACATGTTTGTT [TGCATGCA_site768] | 9.05 ± 0.37 |
| TTTATTTATTAAGAATGTACATGTATTTGTTAAATA [XGTACX_site4465] | 8.35 ± 0.44 |
| CCATTTGATAATAATGCACACCACATATATTTATAT [CACACA_site9002] | 9.11 ± 0.43 |
| CGATTTTTTAAGTTTGTGCACTTAAAAACTATAACA | 8.53 ± 0.47 |
| AAAAGGAATTATAGGAAATAAATATATACAAATATA [TGCATGCA_negctrl_site528] | 8.69 ± 0.58 |
| TATATGTCAATATCTACACACATATAGGTAATTATT [CACACA_site7475] | 9.05 ± 0.38 |

| Sequence | gcPBM binding intensity (ln) |
| --- | --- |
| TATACTATACAACACATACACACAAAAAAAAAAAAA [CACACA_site537] | 9.21 ± 0.43 |
| TATTTCAAAATAAAATAAAATATATATATATGTATA [XGTACX_negctrl_site416] | 8.36 ± 0.49 |
| CAAAAATAATTTAGGTGTACAAATTTGACAAAAAAA [XGTACX_site188] | 8.84 ± 0.35 |
| AATTCAATTGAGCAAAATTCAAATAAATTAAAAAGA [XGTACX_negctrl_site71] | 8.54 ± 0.72 |
| TGATAATATTATATATGTACATATATGTATATTTTT [XGTACX_site7193] | 8.73 ± 0.42 |
| ATGAAACACTCCATAGTGCAAAATATATATTATATT | 8.9 ± 0.45 |
| CTATTTTTCCTGAAATGTACAAGAATTTTATTTGAT [XGTACX_site8867] | 8.52 ± 0.4 |
| TTGGTATATTATAAAAGTACACATAATAAAAAATTT [XGTACX_site7985] | 8.62 ± 0.4 |
| ATATGGGTGAACATATGTACATATATATATTGATAA [XGTACX_site8438] | 8.96 ± 0.45 |
| CCTAAAGTGTAAAATTCACACACATATATATATATA [CACACA_site8385] | 9.78 ± 0.16 |
| TTTATTTATAGGTATACACACTTTAATTAAAAGTTG [CACACA_site7232] | 8.62 ± 0.4 |
| TTTATTTTTGAAGTTGCACACACAAAAATAAAAAGT [CACACA_site8030] | 8.98 ± 0.3 |
| TAATTTGTTATGTATTGTACAAATAATATATGATAT [XGTACX_site1985] | 8.62 ± 0.35 |
| ATTAAAAAAATATACGCACACAAAATGTAATAACAA [CACACA_site2439] | 9.21 ± 0.36 |
| TTTTGTTTAAAAAAAAAAAACAAAAAAAAGCAATTA [CACACA_negctrl_site314] | 8.19 ± 0.42 |
| TTACATAATTTATGTACACACGCAAATACTTATAAT [CACACA_site4331] | 8.95 ± 0.4 |
| ATAACTATAATAATCATACACACCAAAGAGAATATT [CACACA_site6970] | 9.13 ± 0.38 |
| ATTTTTCATTCTGGACATGTTACCATTATATATATG [CACACA_negctrl_site61] | 9.23 ± 0.39 |
| ATTATTACTTTTTGAGTGCACATACACACAGACATA | 9.14 ± 0.23 |
| AGTAGTCTGGAGAAGAGTACACAGTATCTGGTAGCT [XGTACX_site2042] | 8.8 ± 0.38 |
